# In all, about 33,000 sequences were measured (“E-score (-0.5 to 0.5)”: median about -0.043, highest 2% from about 0.37 on). Some of the results follow.
# Molecular target: T1, Upc2 (UniProt Q12151)
# T1 sequence: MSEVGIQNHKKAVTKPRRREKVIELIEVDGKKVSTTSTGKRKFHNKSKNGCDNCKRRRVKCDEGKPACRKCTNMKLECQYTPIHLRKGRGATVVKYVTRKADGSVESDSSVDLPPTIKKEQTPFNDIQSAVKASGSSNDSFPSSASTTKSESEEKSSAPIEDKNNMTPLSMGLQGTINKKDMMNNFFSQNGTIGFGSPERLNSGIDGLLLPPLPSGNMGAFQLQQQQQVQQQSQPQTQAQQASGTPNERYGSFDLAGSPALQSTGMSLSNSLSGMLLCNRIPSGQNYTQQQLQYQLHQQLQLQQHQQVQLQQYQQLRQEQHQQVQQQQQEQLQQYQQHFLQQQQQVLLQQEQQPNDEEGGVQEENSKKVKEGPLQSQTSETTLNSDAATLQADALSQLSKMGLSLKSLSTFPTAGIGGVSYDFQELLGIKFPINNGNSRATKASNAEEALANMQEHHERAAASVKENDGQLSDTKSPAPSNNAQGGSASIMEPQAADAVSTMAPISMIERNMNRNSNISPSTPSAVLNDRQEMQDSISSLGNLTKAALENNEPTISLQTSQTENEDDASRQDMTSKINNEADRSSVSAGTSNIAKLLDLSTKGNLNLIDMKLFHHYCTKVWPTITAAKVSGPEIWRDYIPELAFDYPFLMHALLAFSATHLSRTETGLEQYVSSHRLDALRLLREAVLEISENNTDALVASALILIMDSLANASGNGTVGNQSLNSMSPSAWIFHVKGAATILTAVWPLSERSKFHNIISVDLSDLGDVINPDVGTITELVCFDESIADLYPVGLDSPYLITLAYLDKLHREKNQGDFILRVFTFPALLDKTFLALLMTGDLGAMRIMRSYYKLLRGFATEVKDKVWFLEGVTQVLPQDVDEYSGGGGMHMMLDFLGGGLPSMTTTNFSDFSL
# Test: PBM E-score (8-mer binding enrichment) (E-score (-0.5 to 0.5)); higher = stronger / more preferred TF binding; most listed sequences are background and not binding sites
# Settings: protein concentration: 200 nM; construct: GST-full length
# Summary of the method: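 Masliner-normalised scans of fluorescent anti-GST signal were the basis for scoring. That signal came from GST-tagged yeast transcription factors applied at about 100-200 nM to double-stranded universal all-10-mer Agilent arrays on fresh or once-stripped slides. Each ungapped eight-base word, pooled with its reverse complement, received an E-score from the Universal PBM Analysis Suite.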
row,Sequence,PBM E-score
1,CATGAGGC,-0.218
2,GTCTATAA,0.0937
3,ATCAACAG,-0.245
4,AGATAGAA,-0.0894
5,ACAAATCG,-0.0678
6,AAGATAGG,-0.16
7,AGCATATG,-0.102
8,ATTGGGGC,-0.313
9,AAGGCCCG,0.0667
10,GCTTCTGA,0.0116
11,AGACATGA,-0.203
12,GGAACTTA,0.113
13,AAGAGCGT,0.179
14,ATTCACAC,-0.179
15,GCTACGCA,0.204
16,GCGATGCC,0.0858
17,GTGAGCAA,-0.0436
18,CCTAGGAC,-0.279
19,GAGTCAGC,-0.101
20,CCCCTCAC,-0.178
21,CTTCTGGA,-0.224
22,AGAATTCA,-0.128
23,AGGGCCAG,-0.241
24,TGCTTCCA,-0.202
25,ACTGCAGT,-0.141

row,Sequence,PBM E-score
1,GGCCTCCC,-0.183
2,ACTCCCAT,-0.133
3,ATTGACTG,-0.144
4,TTATACAA,0.0521
5,ATTTTCGG,0.0581
6,CCGGGACG,-0.248
7,CATCTCCA,-0.321
8,ACGAACAT,0.363
9,CGCTGTAA,-0.0506
10,ACACATTG,-0.155
11,AGCCCTAC,0.00435
12,GTGTTGCA,-0.0945
13,CAATAGCG,-0.2
14,CTATTAAC,0.0619
15,GGGATTAA,-0.0596
16,ATAAGGAA,-0.0142
17,GTCATCTA,-0.00467
18,GACATGCC,-0.118
19,AGAAATCT,0.0725
20,CATCCGAC,-0.0538
21,ACAGGATG,-0.0122
22,ACAGGAGA,-0.0252
23,ACTCCCAG,-0.162
24,TGGGAGAA,-0.254
25,ATCAGCCG,-0.0021

row,Sequence,PBM E-score
1,ACATCCGC,0.0487
2,CTACAATC,0.0566
3,CCGACAGG,-0.0268
4,CAATACAG,-0.0673
5,ATCGCGTG,0.0268
6,CTTTGGAA,-0.0689
7,CGGATATA,0.262
8,CGCTGCTC,-0.147
9,CCTTAATC,-0.135
10,AAATTCGC,0.176
11,TAAACAAA,0.137
12,CGGCTTGA,-0.054
13,CAACGCCC,-0.14
14,CACCTCTA,-0.0333
15,CTGTTAAC,0.14
16,CCTTACCA,-0.235
17,CCAGCACC,-0.239
18,ACTTAAAG,-0.118
19,AATGTTAT,-0.00548
20,ACCACCCC,-0.0994
21,CAGGGCCC,-0.122
22,CGTATTTA,0.365
23,AGGCTACA,-0.294
24,ACTCTCAA,-0.15
25,AAGGTTAG,-0.174

row,Sequence,PBM E-score
1,CGATCAGC,0.0725
2,GGCCAGTA,0.0288
3,AGATCCCG,-0.0343
4,GGACCTCA,-0.265
5,GCTTCAAA,0.0404
6,ATGAGGGC,-0.124
7,AGAACATC,-0.105
8,AATGTGCG,0.184
9,ACAAAGGC,0.00837
10,AACGTGCC,0.0771
11,AGCTTCTG,-0.107
12,GGCACTGA,-0.0605
13,CTAACTTC,0.0255
14,CACGTGCA,-0.021
15,CTTAGCAA,0.0395
16,ACTGATTC,-0.0442
17,GAAATTCA,0.114
18,AACCTATG,-0.247
19,AGCTTAAA,0.123
20,CGGTAAGC,0.0789
21,CCGCAAGC,-0.24
22,GTCGCGAC,0.206
23,AGTGTAGG,-0.0434
24,ACTCAAGT,0.00619
25,GGGCTACA,-0.0609

row,Sequence,PBM E-score
1,TGCGGACA,0.0353
2,CACAGAGC,-0.204
3,AGATTTTG,-0.0723
4,GACATAAC,0.0164
5,CACCCGCA,-0.185
6,AACAACAT,0.00118
7,GCGCTTAC,0.113
8,CGCCGACG,-0.107
9,ACACCCCC,-0.312
10,GTGGGAAC,0.0114
11,GGCGCCAC,-0.183
12,CAGCTTCC,-0.0992
13,CATCGATA,0.0768
14,AGGGATCG,0.0387
15,CACCTCAG,-0.267
16,CAAGGCCA,-0.124
17,CGTGAGGC,-0.103
18,GGCGGGAA,-0.084
19,ACGACTAT,0.317
20,CTCATCCC,-0.0444
21,ACCGCCCT,-0.193
22,CAGATTGC,-0.0173
23,TGGATACA,-0.144
24,AAAGTAAG,0.101
25,CATCGGGC,-0.142

row,Sequence,PBM E-score
1,ACGACTAA,0.31
2,GCCAGCAA,-0.305
3,GGCGGACC,-0.241
4,CCCGTTGA,-0.0205
5,CTAAACAC,0.037
6,CGAAAAGC,0.0599
7,CCATTCGC,-0.0819
8,TGTCGTAA,0.433
9,CCCGTGTC,-0.181
10,CAGAGGAA,-0.193
11,ATTTAGTC,-0.104
12,GCCAACTA,-0.194
13,ATCGTAAC,0.372
14,ACGGTGGG,0.134
15,CGGTACCG,0.185
16,GGCTTTTA,-0.157
17,GCTGGTCC,-0.278
18,AATATGTC,0.0189
19,CGCGAGGA,0.0412
20,ACTTGTAA,-0.187
21,AAATAAGC,0.0192
22,CACGGTCG,-0.0714
23,TCTAGGCA,-0.287
24,CTGTCTAA,-0.0102
25,TCCAAGCA,-0.14

row,Sequence,PBM E-score
1,GATTCCGC,-0.144
2,AGTAAAGG,-0.0961
3,AGAGGTGG,-0.166
4,CACGCGAG,0.11
5,GAGCAGAC,-0.028
6,TGACAACA,-0.113
7,ACTAGGCC,-0.138
8,CCGTAAGG,0.141
9,GTTAGATA,-0.00175
10,CACATGCC,-0.264
11,ACTCGCAT,0.28
12,CTTGGGGA,-0.219
13,CACCTCAA,-0.0698
14,ATGACATC,-0.117
15,CCCTAGGG,-0.34
16,CTTGCCAA,0.0377
17,TTCAGGAA,0.0763
18,AAAGACCA,-0.122
19,GGAACCTA,-0.229
20,ACTGAATG,0.0183
21,CGCCTACG,0.115
22,TGACCAAA,0.0238
23,ATTAGGCG,-0.0218
24,AATAATCT,0.00322
25,ATGAACGA,0.459

row,Sequence,PBM E-score
1,ATTAAACA,-0.0789
2,AATATCTA,-0.106
3,GGTGACGA,0.0255
4,CAGCTCCC,-0.144
5,GAACCTCC,0.0995
6,CCCCGCCG,0.00745
7,GAGTTGTA,-0.0461
8,CATTAACA,0.0699
9,CGACTGAG,0.0282
10,AGTGGAAT,-0.153
11,ATAACTTA,0.00349
12,ACCGCTGC,-0.101
13,CATTGTAA,0.0139
14,CATCATGA,-0.211
15,ACGACTCC,0.273
16,AACCGCAG,-0.173
17,CCTAACGC,0.0449
18,CATCAGTA,-0.0377
19,AGCTGAAT,0.0205
20,CGTTCCTC,0.339
21,AACCGAGG,0.269
22,CACTGTTA,-0.0686
23,CTGACCTA,0.00047
24,GGAGGGCC,-0.201
25,ACCACACA,-0.0224

row,Sequence,PBM E-score
1,ACAGCTGC,-0.0946
2,ATGATTGA,0.0994
3,ATAACCTG,0.0193
4,AAATTGTT,-0.0484
5,CCACGCAC,-0.152
6,ATATGGTC,0.116
7,ATCTGCCA,-0.132
8,CTCGCTTA,0.423
9,ATACCTCG,0.18
10,CCTATCGC,-0.049
11,AAGCGGGC,-0.0233
12,AAGTCGCA,0.193
13,CCATAAGC,-0.161
14,AGACGGCA,-0.162
15,ATGGCGCC,-0.194
16,AATCGCGA,0.189
17,TATGTCAA,0.0594
18,CCGATCCG,0.0946
19,ACTCGACC,-0.0381

# Reference: the supplement of paper PMC3334620
